In all, about 340,000 compounds went through this assay and about 6,900 (2%) were called active. Rule as the data show it: active = inhibition above about 30%; inactive = below that, where a call was filed. This is a selection; strong and weak results do not stand in their true shares. Entries without a call were filed so in the source.

In general, inhibition refers to the drop in the measured response relative to a control, in per cent.

UniProt P14416, sequence (P14416 whole entry, looked up): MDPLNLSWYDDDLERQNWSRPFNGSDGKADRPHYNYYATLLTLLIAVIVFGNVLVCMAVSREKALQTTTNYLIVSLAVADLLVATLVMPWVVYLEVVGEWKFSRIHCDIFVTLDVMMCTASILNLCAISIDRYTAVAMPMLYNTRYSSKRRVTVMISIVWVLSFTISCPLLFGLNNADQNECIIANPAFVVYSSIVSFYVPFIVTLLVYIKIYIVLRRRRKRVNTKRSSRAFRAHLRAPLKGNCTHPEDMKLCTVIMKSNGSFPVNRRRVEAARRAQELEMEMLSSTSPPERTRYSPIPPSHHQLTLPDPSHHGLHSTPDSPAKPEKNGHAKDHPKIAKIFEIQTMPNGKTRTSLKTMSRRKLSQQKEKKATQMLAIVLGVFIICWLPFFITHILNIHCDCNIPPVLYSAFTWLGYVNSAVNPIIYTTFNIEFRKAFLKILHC

The experiment concerns the target D(2) dopamine receptor (Homo sapiens) (UniProt P14416). The experiment in a line: HTS Assay for Allosteric Antagonists of the Human D2 Dopamine Receptor: Primary Screen for Antagonists. Also: 0% is about no effect. Particulars: HEK293 TREx D2 cells, calcium flux, dopamine EC80; at 10 µM; stronger effect = higher value. The method in brief:
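Inhibition of EC80 dopamine-driven calcium flux, recorded kinetically, defines activity here; cells are a tetracycline-induced HEK293 T-REx line expressing force-coupled D2.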
In general terms: Calcium flux is commonly read through the fluorescence of an indicator in the cells.
Consider `CCOc1ccccc1CNC(=O)Cn1c(-c2ccccc2)cc(C(C)=O)c1C`, for which the inhibition is -4.32%.
The figure for `Cc1ccn2c(=O)c(C(=O)NCCc3ccccc3)c(O)nc2c1` is 1.13%; for `O=C(CCc1nc(-c2cccs2)no1)Nc1ccccc1[N+](=O)[O-]` it is -5.27%.
As for `O=C(Cn1c(=O)n(Cc2ccccc2)c(=O)c2sc3ccccc3c21)NCc1ccccc1Cl`, the figure is 8.84%; as for `O=C(NC1CC(=O)N(c2cccc(F)c2)C1)c1ccc(S(=O)(=O)N2CCCC2)cc1` (configuration not stated), -8.19%.
With `COc1cc(/C=N/NC(=O)c2c(-c3ccccc3)noc2C)cc(OC)c1OC`, the inhibition is active: 56.3%.
The figure for `COc1ccc(CCNC(=O)c2cnc3ccc(C)cn3c2=O)cc1` is 11.2%; for `CCCS(=O)(=O)c1c(S(=O)(=O)CCC)c2cc(CC)ccn2c1C(=O)c1ccc(OC)cc1` it is -6.73%.
The figure for `O=C(NCCCN1CCN(c2cccc(Cl)c2)CC1)C1CCC(=O)N1Cc1ccccc1Cl` (configuration not stated) is active: 39.8%.
As for `CC(C)CS(=O)(=O)c1oc(-c2ccc(F)cc2)nc1S(=O)(=O)c1ccccc1`, the figure is -18.2%.
Turning to `COc1cccc(Cn2nnc(C(=O)Nc3cc(C)ccc3C)c2N)c1`, the inhibition was -17.6%.
The figure for `CCOc1ccc(NC(=O)N2CCC(C(N)=O)(N3CCCCC3)CC2)cc1` is 3.1%; for `O=C(Nc1ccc(C(=O)OCc2cc(=O)n3c4c(sc3n2)CCCC4)cc1)c1ccccc1` it is 13.1%; for `Cc1cc(OCCN2CCCC2)cc(C(C)C)c1` it is active: 46.1%.
As for `CC(=O)c1ccc(NC(=O)c2noc3c2CCc2ccccc2-3)cc1`, the inhibition was determined as 17.9%.
As for `COc1ccc(C2C(C(N)=O)=C(C)Nc3nc(CCCO)nn32)c(OC)c1` (configuration not stated), the figure is -2.06%; as for `c1ccc(-c2ccccc2OCCCN2CCCCCC2)cc1`, active: 56.2%.
As for `Cc1ccc(Cl)cc1NC(=O)C(C)n1nnc2sc3c(c2c1=O)CCCC3` (configuration not stated), the figure is -21.5%; as for `Cc1cccc(N2CCN(S(=O)(=O)c3ccc4c(c3)CCCN4C(=O)C3CCC3)CC2C)c1` (configuration not stated), -7.88%.
As for `COc1ccc(Cn2c(=O)[nH]c3cc(C(=O)N4CCN(c5cccc(Cl)c5)CC4)ccc3c2=O)cc1`, the figure is 2.89%; as for `Cn1c(=O)n(-c2ccc(Br)cc2F)c(=O)c2sc3ccccc3c21`, 18%.
In the case of `CCOC(=O)c1ccc(CN(Cc2ccc(F)cc2)S(=O)(=O)c2cc(C(=O)Nc3cccc(C(F)(F)F)c3)ccc2F)cc1`, the inhibition is -13%.
As for `CCOc1ccc(NC(=O)CN2C(=O)C(c3ccccc3)=NC23CCC(C)CC3)cc1` (configuration not stated), the figure is 7.38%; as for `O=C(NC1CCCCCC1)c1ccc2c(c1)sc1nc(-c3ccc(F)cc3)cn12`, 25.8%; as for `CCCN1C(C(=O)c2ccccc2)=C(OC(=O)COc2ccccc2)c2ccccc2S1(=O)=O`, 2.01%.
For `Cc1cc(C)c(NC(=O)CSc2nc3ccccc3nc2N2CCCCC2)c(C)c1`, the inhibition is -1.87%.
As to `CCCc1nc2sc3c(N4CCC(C)CC4)ncnc3c2c2c1CCCC2`, the inhibition was determined as 14.5%.
The figure for `CC(C)COc1cccc(C(=O)Nc2ccc(-c3nc4ncccc4o3)cc2)c1` is -2.1%; for `CCC(C(=O)Nc1cccc(Cl)c1C)n1nc(-c2ccc(C)cc2)ccc1=O` (configuration not stated) it is -10%.
`CC(C)COc1ccc(C(=O)Nc2ccc(S(=O)(=O)Nc3ncccn3)cc2)cc1`: the inhibition is -3.59%.
The figure for `CCC(=O)Nc1cc(C)c(O)c(-c2nc3ncccc3o2)c1` is 10.6%; for `CC1CCN(C(=O)Cn2cc(SCC(=O)NCc3ccccc3Cl)c3ccccc32)CC1` it is 5.35%.
The figure for `O=C(Cn1cnc2c(oc3ccccc32)c1=O)Nc1ccccc1C(F)(F)F` is -19.6%.
As for `COc1ccc(OC)c(NC(=O)CN(C)S(=O)(=O)c2ccc(C(=O)N3CCOCC3)s2)c1`, the figure is -11.3%; as for `Cc1cc(C)c(C)c(OCCCCN2CCCCC2)c1`, active: 55.3%; as for `COc1ccccc1NC(=O)Cn1c(=O)n(Cc2ccccc2)c(=O)c2sc3ccccc3c21`, 14.3%.
`Cc1ccc(-c2nnc(Nc3cccc(Cl)c3)c3ccccc23)cc1S(=O)(=O)N1CCOCC1`: the inhibition is 11.1%.
As for `COc1ccc(C)cc1NC(=O)N(Cc1ccc(C)o1)C1CCN(C(C)=O)CC1`, the figure is -1.34%; as for `COc1ccc(CN2C(=O)c3oc4ccccc4c(=O)c3C2c2ccc(O)cc2)cc1` (configuration not stated), -3.19%.
As for `O=C(Nc1cccc(-c2nc3cc(Cl)ccc3o2)c1)c1cc([N+](=O)[O-])ccc1N1CCOCC1`, the figure is 9.53%.
As for `CCn1c(=O)c2cc(C(=O)Nc3cc(F)ccc3F)sc2c2ccccc21`, the figure is -0.791%; as for `Cc1ccc(CN2CCC(CNc3ncnc4onc(-c5ccc(F)cc5)c34)CC2)cc1`, 23.2%; as for `COc1nc(OC)nc(N2CCCCCC2)n1`, active: 33%.
`COc1ccc(S(=O)(=O)c2nnn(-c3cc(Cl)c(OC)cc3OC)c2C)cc1`: the inhibition is 11.6%.
As for `O=C(CSc1nc2c([nH]c3ccccc32)c(=O)n1-c1ccc(F)cc1)NCc1ccccc1`, the figure is -0.047%; as for `CCOCCCn1c(SCC(=O)Nc2ccc(C(C)C)cc2)nc2c(sc3ccccc32)c1=O`, -27.3%; as for `Cn1c(=O)c2c(-c3ccccc3)n3c4ccccc4nc(-c4ccccc4)c3c2n(C)c1=O`, 6.71%.
As for `COc1ccc(C(=O)NCC(c2cccnc2)N2CCc3ccccc3C2)cc1OC` (configuration not stated), the figure is -6.64%; as for `COC(=O)c1cc2occc2n1Cc1nc(-c2ccccc2F)oc1C`, 6.63%.
The figure for `CCOc1cccc(C(=O)Nc2ccc(S(=O)(=O)N(Cc3ccccc3)c3ccccc3)cc2)c1` is -12.1%; for `COc1cccc(-c2nc(SCc3cc(=O)c4ccc(C)c(C)c4[nH]3)n[nH]2)c1` it is 4.24%; for `CCOc1ccc(NC(=O)Cn2cc(C(=O)c3ccc(CC)cc3)c(=O)c3cc(C)ccc32)cc1` it is -6.09%.
With `COc1ccc(NC(=O)c2csc3c2CCCCC3)cc1`, the inhibition is -10.3%.
As for `Cc1ccc(Cc2nc3ccccc3nc2SCC(=O)NCCC(C)C)cc1`, the figure is -9.05%.
In the case of `Cc1ccc(Cc2c(C)nc3nc(SCC(=O)NC(C)c4ccccc4)nn3c2C)cc1` (configuration not stated), the inhibition is -2.96%.
As for `CN1CCN(CCCNC(=O)c2cnn(-c3ccccc3)c2-n2cccc2)CC1`, the figure is -14.2%.
Regarding `O=c1c2sc3ccccc3c2n(Cc2cccc(C(F)(F)F)c2)c(=O)n1Cc1ccco1`, the inhibition was -1.52%.
The figure for `Cc1ccc(C)c(-c2nc(Cn3c(=O)cc(-c4ccccc4)c4c(C)nn(C)c43)c(C)o2)c1` is 0.379%; for `CC(C)(C)C(=O)CSc1nc2ccsc2c(=O)n1Cc1ccccc1F` it is 14.8%.
On to `CCOc1ccccc1CNC(=O)c1ccc2nc(Cc3ccc(OC)cc3)oc2c1`, for which the inhibition is 15.1%.
The figure for `O=C(Nc1cc(NC(=O)c2ccccc2Cl)ccc1Cl)c1ccccc1` is 11.1%.
The figure for `O=C(NCc1cccc(F)c1)C1CCN(C(=O)c2sccc2-n2cccc2)CC1` is -9.4%; for `COc1ccc(CNC(=O)c2ccc(Cn3c(=O)c4cccn4c4cccnc43)cc2)cc1OC` it is 11.9%; for `COc1ccc(N2CCN(C(=O)CCNS(=O)(=O)c3ccc4c(c3)CCN4C(=O)C3CC3)CC2)cc1` it is -6%.
As for `CCc1ccc(NC(=O)CSc2cn(CC(=O)N3CCCC3)c3ccccc23)cc1`, the figure is 24.4%.
Consider `CCOCCCNC(=O)NC(CCC(C)C)c1c(-n2cccc2)sc2c1CCN(C)C2` (configuration not stated), for which the inhibition came to 6.64%.
The figure for `COc1ccccc1N1CCN(C(=O)CCS(=O)(=O)c2cc(Br)cc3c2N(C(=O)C2CC2)CC3)CC1` is 4.46%; for `CCOC(=O)c1c(C)oc2nc(C)nc(N3CCN(c4ccccc4)CC3)c12` it is -4.37%.
Take `O=C(Nc1ccc(F)cc1)c1cccn1-c1nnc(N2CCCCC2)s1`: the inhibition amounted to 1.93%.
As for `COc1ccc2oc(=O)c(C(=O)NCCc3c(C)[nH]c4ccc(Br)cc34)cc2c1`, the figure is 9.88%; as for `O=C(CSc1nnc(CNC(=O)c2ccccc2)n1-c1cccc(Cl)c1)Nc1ccccc1F`, -3.02%; as for `Fc1ccccc1N1CCN(CCCNc2ccc3nncn3n2)CC1`, active: 90%.
As for `Cc1ccc(-c2csc(/C(C#N)=C/c3ccccc3Cl)n2)cc1`, the figure is 8.83%; as for `Cc1cn2c(=O)cc(COc3ccccc3NC(=O)c3ccccc3C)nc2s1`, 1.86%; as for `CCCNC(=O)c1cnc2sc(N3CCCCC3)nn2c1=O`, 5.98%.
As for `Cc1ccc2cccc(NC(=O)c3ccc(-c4ccc(Br)cc4)o3)c2n1`, the figure is -4.96%.
Turning to `COc1cccc(N2C(=O)N(CC(=O)NCc3cccc(OC)c3OC)c3ccccc3S2(=O)=O)c1`, the inhibition was found to be 9.1%.
As for `CCc1ccc(-n2c(-c3ccccc3)c(C)n3c4c(=O)n(C)c(=O)n(C)c4nc23)cc1`, the inhibition is 9.83%.
With `NS(=O)(=O)c1ccc(CCNC(=O)c2nc(SCc3ccccc3F)ncc2Cl)cc1`, the inhibition was -11.3%.
As for `COc1cccc(C2C(C(=O)Nc3ccccc3OC)=C(C)Nc3nc4ccccc4n32)c1` (configuration not stated), the figure is 2.16%; as for `CCc1ccccc1Nc1ncnc2c1nc1n2CCCC1`, -18.8%; as for `Cc1cc(C)c2c(-n3cccc3)c(C(=O)NCCCN3CCCCC3C)sc2n1` (configuration not stated), 12.1%.
In the case of `COc1cc(-c2noc(-c3cc(C(C)C)[nH]n3)n2)cc(OC)c1OC`, the inhibition is 5.31%.
Regarding `O=C1OC(N2CCN(c3ccccn3)CC2)c2ccccc21` (configuration not stated), the inhibition is active: 33.8%.
The figure for `Cc1nn(S(=O)(=O)c2ccc(Cl)cc2)c(C)c1S(=O)(=O)N1CCCCCC1` is -15.9%; for `CCOC(=O)c1c(NC(=O)c2cc(=O)c3c(C)cc(C)cc3o2)sc(C(C)=O)c1C` it is 2.57%; for `CC(=O)Nc1nonc1-c1nnc(SCc2ccc(Cl)cc2)n1C` it is 1.27%.
As for `COc1ccc(CNc2nc(=S)[nH]c3cc(OC)c(OC)cc23)cc1`, the figure is active: 34%.
Consider `COC(=O)c1ccccc1OCCN1CCCCCC1`, for which the inhibition is active: 38.9%.
Consider `CNC(=O)COc1ccc(NC(=O)c2ccc(-c3nn(C)c(=O)c4ccccc34)cc2)cc1`, for which the inhibition was 0.166%.
As for `CCn1c(SCc2ccccc2Cl)nc(=O)c2c(C(=O)OC)cc(C3CC3)nc21`, the figure is -0.986%; as for `CC(C)NC(=O)C1CCN(C(=O)N2CCOc3ccc(Cl)cc32)CC1`, 16%; as for `Clc1ccc(CCNC(c2nnc(-c3ccccc3)o2)c2ccccc2Cl)cc1` (configuration not stated), 8.84%.
As for `Cc1ccc(-c2noc(-c3ccc(N4CCCCC4)c([N+](=O)[O-])c3)n2)cc1`, the figure is -3.61%; as for `CCCOc1ccc(C(=O)Nc2cc(-c3nc4cc(C)cc(C)c4o3)ccc2C)cc1`, 2.87%.
Consider `CN1C(=O)c2ccccc2Sc2ccc(NC(=O)N3CCN(c4ccccc4F)CC3)cc21`, for which the inhibition is -17.7%.
As for `CCOc1cccc(C(=O)Nc2ccc3oc(-c4cccnc4)nc3c2)c1`, the figure is 11.9%.

Values taken from PubChem BioAssay AID485344 (National Center for Advancing Translational Sciences (NCATS), 2010).
